# Test results reported in the supplement of paper PMC8728848.
# This is one part of the list.
# B1: Banana lectin (Musa acuminata) (protein)
# chain: MNGAIKVGAWGGNGGSAFDMGPAYRIISVKIFSGDVVDGVDVTFTYYGKTETRHYGGSGGTPHEIVLQEGEYLVGMAGEVANYTGAVVLGKLGFSTNKKAYGPFGNTGGTPFSLPIAAGKISGFFGRGGKFLDAIGVYLEPLEHHHHHH
# Columns and labels:
# Assay in all cases: glycan array binding signal (z-score within array); higher = stronger binding
# Details in all cases: glycan notation: IUPAC condensed, linker removed; mutation: H84T
# Glc(b1-4)Glc = target: Glc(b1-4)Glc
# Summary of the method: (§1)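 Columns mapping to the same glycan were averaged after glycan names were converted to IUPAC-condensed notation. The data come from 3228 arrays in the Consortium for Functional Glycomics database, limited to those with an available protein sequence. Binding is reported as a within-array Z-score averaged across arrays of one protein sequence and across linkers.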
# Glc(b1-6)Glc = target: Glc(b1-6)Glc
# Summary of the method: as §1
# GlcA(b1-3)Gal = target: GlcA(b1-3)Gal
# Summary of the method: as §1
# GlcA(b1-3)GlcNAc = target: GlcA(b1-3)GlcNAc
# Summary of the method: as §1
# GlcA(b1-6)Gal = target: GlcA(b1-6)Gal
# Summary of the method: as §1
# [1] = target: GlcA3S(b1-3)Gal(b1-4)GlcNAc(b1-2)Man
# Summary of the method: as §1
# [2] = target: GlcA3S(b1-3)Gal(b1-4)GlcNAc(b1-3)Gal(b1-4)Glc
# Summary of the method: as §1
# [3] = target: GlcNAc(a1-3)Gal(b1-4)GlcNAc
# Summary of the method: as §1
# [4] = target: GlcNAc(a1-4)Gal(b1-3)GlcNAc
# Summary of the method: as §1
# [5] = target: GlcNAc(a1-4)Gal(b1-4)GalNAc
# Summary of the method: as §1
# [6] = target: GlcNAc(a1-4)Gal(b1-4)GlcNAc
# Summary of the method: as §1
# [7] = target: GlcNAc(a1-4)Gal(b1-4)GlcNAc(b1-3)Gal(b1-4)Glc
# Summary of the method: as §1
# [8] = target: GlcNAc(a1-4)Gal(b1-4)GlcNAc(b1-3)Gal(b1-4)GlcNAc
# Summary of the method: as §1
# [9] = target: GlcNAc(a1-4)Gal(b1-4)GlcNAc(b1-3)Gal(b1-4)GlcNAc(b1-3)Gal(b1-4)GlcNAc
# Summary of the method: as §1
# [10] = target: GlcNAc(a1-4)Gal(b1-4)GlcNAc(b1-3)Gal(b1-4)[Fuc(a1-3)]GlcNAc(b1-3)Gal(b1-4)[Fuc(a1-3)]GlcNAc
# Summary of the method: as §1
# [11] = target: GlcNAc(a1-6)Gal(b1-4)GlcNAc
# Summary of the method: as §1
# [12] = target: GlcNAc(b1-2)Gal(b1-3)GalNAc
# Summary of the method: as §1
# [13] = target: GlcNAc(b1-2)Man(a1-3)[GlcNAc(b1-2)Man(a1-6)]Man(b1-4)GlcNAc(b1-4)GlcNAc
# Summary of the method: as §1
# [14] = target: GlcNAc(b1-2)Man(a1-3)[GlcNAc(b1-2)Man(a1-6)]Man(b1-4)GlcNAc(b1-4)[Fuc(a1-6)]GlcNAc
# Summary of the method: as §1
# [15] = target: GlcNAc(b1-2)Man(a1-3)[GlcNAc(b1-4)][GlcNAc(b1-2)Man(a1-6)]Man(b1-4)GlcNAc(b1-4)GlcNAc
# Summary of the method: as §1
# [16] = target: GlcNAc(b1-2)Man(a1-3)[GlcNAc(b1-4)][GlcNAc(b1-2)Man(a1-6)]Man(b1-4)GlcNAc(b1-4)[Fuc(a1-6)]GlcNAc
# Summary of the method: as §1
# [17] = target: GlcNAc(b1-2)[GlcNAc(b1-4)]Man(a1-3)[GlcNAc(b1-2)Man(a1-6)]Man(b1-4)GlcNAc(b1-4)GlcNAc
# Summary of the method: as §1
# [18] = target: GlcNAc(b1-2)[GlcNAc(b1-4)]Man(a1-3)[GlcNAc(b1-4)][GlcNAc(b1-2)Man(a1-6)]Man(b1-4)GlcNAc(b1-4)GlcNAc
# Summary of the method: as §1
# [19] = target: GlcNAc(b1-2)[GlcNAc(b1-4)]Man(a1-3)[GlcNAc(b1-4)][GlcNAc(b1-2)[GlcNAc(b1-6)]Man(a1-6)]Man(b1-4)GlcNAc(b1-4)GlcNAc
# Summary of the method: as §1
# [20] = target: GlcNAc(b1-2)[GlcNAc(b1-4)]Man(a1-3)[GlcNAc(b1-4)][GlcNAc(b1-2)[GlcNAc(b1-6)]Man(a1-6)]Man(b1-4)GlcNAc(b1-4)[Fuc(a1-6)]GlcNAc
# Summary of the method: as §1
# [21] = target: GlcNAc(b1-2)[GlcNAc(b1-6)]Man(a1-6)[GlcNAc(b1-2)Man(a1-3)]Man(b1-4)GlcNAc(b1-4)GlcNAc
# Summary of the method: as §1
# [22] = target: GlcNAc(b1-2)[GlcNAc(b1-6)]Man(a1-6)[GlcNAc(b1-2)Man(a1-3)]Man(b1-4)GlcNAc(b1-4)[Fuc(a1-6)]GlcNAc
# Summary of the method: as §1
# [23] = target: GlcNAc(b1-2)[GlcNAc(b1-6)]Man(a1-6)[GlcNAc(b1-4)][GlcNAc(b1-2)Man(a1-3)]Man(b1-4)GlcNAc(b1-4)GlcNAc
# Summary of the method: as §1
# GlcNAc(b1-3)Fuc = target: GlcNAc(b1-3)Fuc
# Summary of the method: as §1
# GlcNAc(b1-3)Gal = target: GlcNAc(b1-3)Gal
# Summary of the method: as §1
# [24] = target: GlcNAc(b1-3)Gal(b1-3)GalNAc
# Summary of the method: as §1
# GlcNAc(b1-3)Gal(b1-4)Glc = target: GlcNAc(b1-3)Gal(b1-4)Glc
# Summary of the method: as §1
# [25] = target: GlcNAc(b1-3)Gal(b1-4)GlcNAc
# Summary of the method: as §1
# [26] = target: GlcNAc(b1-3)Gal(b1-4)GlcNAc(b1-2)Man(a1-3)[GlcNAc(b1-3)Gal(b1-4)GlcNAc(b1-2)Man(a1-6)]Man(b1-4)GlcNAc(b1-4)GlcNAc
# Summary of the method: as §1
# [27] = target: GlcNAc(b1-3)Gal(b1-4)GlcNAc(b1-2)Man(a1-3)[GlcNAc(b1-3)Gal(b1-4)GlcNAc(b1-2)Man(a1-6)]Man(b1-4)GlcNAc(b1-4)[Fuc(a1-6)]GlcNAc
# Summary of the method: as §1
# [28] = target: GlcNAc(b1-3)Gal(b1-4)GlcNAc(b1-2)[GlcNAc(b1-3)Gal(b1-4)GlcNAc(b1-6)]Man(a1-6)[GlcNAc(b1-3)Gal(b1-4)GlcNAc(b1-2)Man(a1-3)]Man(b1-4)GlcNAc(b1-4)GlcNAc
# Summary of the method: as §1
# [29] = target: GlcNAc(b1-3)Gal(b1-4)GlcNAc(b1-3)Gal(b1-4)GlcNAc
# Summary of the method: as §1
# [30] = target: GlcNAc(b1-3)Gal(b1-4)GlcNAc(b1-3)Gal(b1-4)GlcNAc(b1-2)Man(a1-3)[GlcNAc(b1-3)Gal(b1-4)GlcNAc(b1-3)Gal(b1-4)GlcNAc(b1-2)Man(a1-6)]Man(b1-4)GlcNAc(b1-4)GlcNAc
# Summary of the method: as §1
# [31] = target: GlcNAc(b1-3)Gal(b1-4)GlcNAc(b1-3)Gal(b1-4)GlcNAc(b1-2)Man(a1-3)[GlcNAc(b1-3)Gal(b1-4)GlcNAc(b1-3)Gal(b1-4)GlcNAc(b1-2)Man(a1-6)]Man(b1-4)GlcNAc(b1-4)[Fuc(a1-6)]GlcNAc
# Summary of the method: as §1
# [32] = target: GlcNAc(b1-3)Gal(b1-4)GlcNAc(b1-3)Gal(b1-4)GlcNAc(b1-2)[GlcNAc(b1-3)Gal(b1-4)GlcNAc(b1-3)Gal(b1-4)GlcNAc(b1-6)]Man(a1-6)[GlcNAc(b1-3)Gal(b1-4)GlcNAc(b1-3)Gal(b1-4)GlcNAc(b1-2)Man(a1-3)]Man(b1-4)GlcNAc(b1-4)[Fuc(a1-6)]GlcNAc
# Summary of the method: as §1
# [33] = target: GlcNAc(b1-3)Gal(b1-4)GlcNAc(b1-3)Gal(b1-4)GlcNAc(b1-3)Gal(b1-4)GlcNAc(b1-2)Man(a1-3)[GlcNAc(b1-3)Gal(b1-4)GlcNAc(b1-3)Gal(b1-4)GlcNAc(b1-3)Gal(b1-4)GlcNAc(b1-2)Man(a1-6)]Man(b1-4)GlcNAc(b1-4)GlcNAc
# Summary of the method: as §1
# [34] = target: GlcNAc(b1-3)Gal(b1-4)GlcNAc(b1-3)Gal(b1-4)GlcNAc(b1-3)Gal(b1-4)GlcNAc(b1-2)Man(a1-3)[GlcNAc(b1-3)Gal(b1-4)GlcNAc(b1-3)Gal(b1-4)GlcNAc(b1-3)Gal(b1-4)GlcNAc(b1-2)Man(a1-6)]Man(b1-4)GlcNAc(b1-4)[Fuc(a1-6)]GlcNAc
# Summary of the method: as §1
# [35] = target: GlcNAc(b1-3)Gal(b1-4)GlcNAc(b1-3)Gal(b1-4)GlcNAc(b1-3)Gal(b1-4)GlcNAc(b1-2)[GlcNAc(b1-3)Gal(b1-4)GlcNAc(b1-3)Gal(b1-4)GlcNAc(b1-3)Gal(b1-4)GlcNAc(b1-6)]Man(a1-6)[GlcNAc(b1-3)Gal(b1-4)GlcNAc(b1-3)Gal(b1-4)GlcNAc(b1-3)Gal(b1-4)GlcNAc(b1-2)Man(a1-3)]Man(b1-4)GlcNAc(b1-4)[Fuc(a1-6)]GlcNAc
# Summary of the method: as §1
# [36] = target: GlcNAc(b1-3)Gal(b1-4)GlcNAc(b1-3)Gal(b1-4)GlcNAc(b1-3)Gal(b1-4)GlcNAc(b1-3)Gal(b1-4)GlcNAc(b1-2)Man(a1-3)[GlcNAc(b1-3)Gal(b1-4)GlcNAc(b1-3)Gal(b1-4)GlcNAc(b1-3)Gal(b1-4)GlcNAc(b1-3)Gal(b1-4)GlcNAc(b1-2)Man(a1-6)]Man(b1-4)GlcNAc(b1-4)GlcNAc
# Summary of the method: as §1
# [37] = target: GlcNAc(b1-3)Gal(b1-4)GlcNAc(b1-3)Gal(b1-4)GlcNAc(b1-3)Gal(b1-4)GlcNAc(b1-3)Gal(b1-4)GlcNAc(b1-2)Man(a1-3)[GlcNAc(b1-3)Gal(b1-4)GlcNAc(b1-3)Gal(b1-4)GlcNAc(b1-3)Gal(b1-4)GlcNAc(b1-3)Gal(b1-4)GlcNAc(b1-2)Man(a1-6)]Man(b1-4)GlcNAc(b1-4)[Fuc(a1-6)]GlcNAc
# Summary of the method: as §1
binder,measurement,setting,value
B1,glycan array binding signal (z-score),Glc(b1-4)Glc,-0.134
same,glycan array binding signal (z-score),Glc(b1-6)Glc,-0.184
same,glycan array binding signal (z-score),GlcA(b1-3)Gal,-0.194
same,glycan array binding signal (z-score),GlcA(b1-3)GlcNAc,-0.217
same,glycan array binding signal (z-score),GlcA(b1-6)Gal,-0.183
same,glycan array binding signal (z-score),[1],-0.15
same,glycan array binding signal (z-score),[2],-0.177
same,glycan array binding signal (z-score),[3],0.003
same,glycan array binding signal (z-score),[4],0.528
same,glycan array binding signal (z-score),[5],-0.184
same,glycan array binding signal (z-score),[6],-0.046
same,glycan array binding signal (z-score),[7],0.078
same,glycan array binding signal (z-score),[8],0.022
same,glycan array binding signal (z-score),[9],0.547
same,glycan array binding signal (z-score),[10],-0.034
same,glycan array binding signal (z-score),[11],-0.157
same,glycan array binding signal (z-score),[12],-0.173
same,glycan array binding signal (z-score),[13],-0.106
same,glycan array binding signal (z-score),[14],-0.179
same,glycan array binding signal (z-score),[15],-0.181
same,glycan array binding signal (z-score),[16],-0.176
same,glycan array binding signal (z-score),[17],-0.164
same,glycan array binding signal (z-score),[18],-0.19
same,glycan array binding signal (z-score),[19],-0.193
same,glycan array binding signal (z-score),[20],-0.156
same,glycan array binding signal (z-score),[21],-0.182
same,glycan array binding signal (z-score),[22],-0.12
same,glycan array binding signal (z-score),[23],-0.206
same,glycan array binding signal (z-score),GlcNAc(b1-3)Fuc,-0.179
same,glycan array binding signal (z-score),GlcNAc(b1-3)Gal,-0.186
same,glycan array binding signal (z-score),[24],-0.164
same,glycan array binding signal (z-score),GlcNAc(b1-3)Gal(b1-4)Glc,-0.173
same,glycan array binding signal (z-score),[25],-0.188
same,glycan array binding signal (z-score),[26],-0.151
same,glycan array binding signal (z-score),[27],-0.178
same,glycan array binding signal (z-score),[28],-0.125
same,glycan array binding signal (z-score),[29],-0.214
same,glycan array binding signal (z-score),[30],-0.141
same,glycan array binding signal (z-score),[31],-0.119
same,glycan array binding signal (z-score),[32],-0.137
same,glycan array binding signal (z-score),[33],-0.199
same,glycan array binding signal (z-score),[34],-0.082
same,glycan array binding signal (z-score),[35],-0.082
same,glycan array binding signal (z-score),[36],-0.146
same,glycan array binding signal (z-score),[37],-0.142
